Here are results for 52 compounds from ChEMBL document CHEMBL4888484, “Replenishing the malaria drug discovery pipeline: Screening and hit evaluation of the MMV Hit Generation Library 1 (HGL1) against asexual blood stage Plasmodium falciparum ,using a nano luciferase reporter read-out” (2022).

The whole screen tested about 4,800 compounds, of which about 420 (8.8%) showed an effect of 50% or more. This is one part of the list. Where a SMILES comes first, the peptide text is derived from it. The star is where a group is joined. NHPhenethyl = c1ccc(CCN*)cc1

The test concerns Plasmodium falciparum. Nature of the test: Confirmatory screen in NF54 nanoGlo assay, in single point, at 2uM, 72h. The format is functional, Erythrocyte. As to conditions: timepoint 72 hour.
One may read the % Inhibition as the relative decrease from the control value, in per cent. Regarding `CN(C)Cc1ccc(NC(=O)c2cc(F)cc3c(=O)c4cc(F)ccc4[nH]c23)cc1`, the “% Inhibition” value came to 79%. Next, `N#Cc1ccc(NCCc2ccc(O)cc2)cn1`: -9%; `COc1ccc(OC)c(NC(=O)c2c(C)noc2-c2ccc(Cl)cc2)c1`: 9%. Next, `Cc1ncsc1-c1nc(CNc2ccc(C(F)(F)F)cc2Cl)no1`: -19%. In the case of `CCCC[C@H](CC)C(=O)NC1CCCCC1` it was 2%. As for `O=C(CCC1CCCC1)N1CCC(N2CCCCCC2)CC1`, the “% Inhibition” value worked out at 6%.

Consider `COCc1nn2c3c(nnc2c1-c1ccccc1)C(=O)CC(C)(C)C3`, for which the “% Inhibition” value is given as 2%. In the case of `CC1(C)C[C@@H](NC(=O)c2cc3[nH]cnc3cc2F)CCO1` it was 7%; in that of `O=C1CN(C(=O)c2ccc(-c3ccccc3F)o2)c2ccccc2N1`, -9%; in that of `CCc1ncsc1C(=O)N(C)[C@@H]1CCC[C@H]1O`, -12%.

For the compound `CC(C)c1ccc(S(=O)(=O)Nc2ccc3nc(NC(=O)c4ccccc4)sc3c2)cc1`, the “% Inhibition” value was found to be 0%.

Turning to `CC(C)(C)OC(=O)N1CCC(Cn2nccc2N)CC1`, the “% Inhibition” value was -6%. Next, `COc1ccc(CN(Cc2ccncc2)CC2CCN(C3CCN(C)CC3)CC2)c(F)c1`: 85%; `S=c1oc2ccccc2n1CNC1CCCCC1`: 1%; `CCC(=O)OC1(C#CCOc2ccc(OC)cc2)CCN(C)CC1`: 1%. Turning to `CCOc1cc(C(=O)N[C@H]2CCS(=O)(=O)C2)cc2occc12`, the “% Inhibition” value is -6%. In the case of `Cc1cc(O)nc(CN2CC(C)CC(C)C2)n1` (configuration not stated) it was -8%. In the case of `CCOc1c(CNC[C@H](C)O)cc(Br)cc1OC` it was -1%.

On to `O=S(=O)(c1ccc(Br)o1)N1CCCC[C@H]1c1ncc[nH]1`, for which the “% Inhibition” value was -6%. Consider `O=C1CCN(C(=O)C2(c3cccc(Cl)c3)CCCC2)CCN1`, for which the “% Inhibition” value was 2%.

Consider `Oc1ccc(-c2nnc(-c3ccc(O)cc3)nn2)cc1`, for which the “% Inhibition” value is 51%. Next, `C[C@@H]1C[C@@H](Nc2ccccc2)c2ccccc2N1C(=O)COc1ccc(Br)cc1`: -7%; `CC(C)(C)c1cc(CN2CCN(S(N)(=O)=O)CC2)n[nH]1`: 9%. Next, `C[C@H]1CCCCN1S(=O)(=O)c1ccc(-c2ccc(Cl)cc2)cc1`: 1%; `CCc1ccc(C(NC(=O)N2CC3C4CCC(O4)C3C2)C(C)(C)C)o1` (configuration not stated): -14%.

As for `CCOc1ccc(Cn2cncn2)nc1`, the “% Inhibition” value is -4%. On to `O=S(=O)(C1CC1)N1CC[C@H](CO)C1`, for which the “% Inhibition” value is -6%. Next, `CC(C)(NC(=O)CC1(O)CCCCC1)C(=O)Nc1ccccc1`: -1%; `Cc1c(N2CCC(C(=O)NC[C@H]3CCCO3)CC2)c(=O)n(CC(C)C)c(=O)n1-c1ccccc1`: -7%; `Cc1csc([C@@H](C#N)C(=O)c2ccncc2)n1`: -11%. For the compound `NC(=O)c1ccc(NC(=O)N2CCc3c(F)ccc(F)c3C2)c(F)c1`, the “% Inhibition” value is -12%. On to `Cc1cc(=O)n(Cc2ccccc2)c2c(C)cccc12`, for which the “% Inhibition” value is on record as 1%. In the case of `Cc1ccc(Nc2ccc(N3CCNCC3)nn2)nc1` it was 35%; in that of `Cc1ccccc1N1CCN(C(=O)c2ccc3ncccc3c2)CC1`, -4%; in that of `CNc1nc(C)cc(C(=O)Nc2ccnn2C[C@H]2CCOC2)n1`, -8%. In the case of `Cc1cc(NC(=O)C(C)N2CCOC(c3nc(C(C)C)n[nH]3)C2)on1` (configuration not stated), the “% Inhibition” value turned out to be 0%. For the compound `COc1cccc(CNC(=O)[C@H]2CCCN(c3nc4cccnc4n(C)c3=O)C2)c1OC`, the “% Inhibition” value is recorded as -1%. Next, `C=C1C(C)C2C(Cc3c[nH]c4ccccc34)NC(=O)C23C(=O)CC(O)C(O)CC(C)C/C=C/C3C1O` (configuration not stated): 44%; `Cc1ccccc1N1C(O)=Nc2ccccc2S1(=O)=O`: -12%.

As for `O=C(Nc1cnc2ccccc2c1)c1ccccc1C(=O)c1ccc(F)cc1`, the “% Inhibition” value was 96%. In the case of `CC1(C)N=C(c2ccc(C(C)(C)C)cc2)C(=O)N1` it was 2%; in that of `O=C(CN1CCC[C@H](O)C1)NCC1(N2CCOCC2)CCCCC1`, -14%; in that of `N#Cc1cc(Br)cc(Cl)c1O`, 0%. Next, `Cn1c(=O)c2c(nc3nc(N4CCOCC4)n(CC(=O)c4ccc(Cl)cc4)n32)n(C)c1=O`: -4%. In the case of `CC(N)C(=O)NC(C)C(=O)NCCc1ccccc1` (stereo not drawn) (H-Ala-Ala-NHPhenethyl; configuration not given here) it was -5%.

Take `Cc1cccc(CN(Cc2ccccn2)C(=O)Cn2c(C)cc(O)cc2=O)c1`: the “% Inhibition” value amounted to 3%. Next, `Cc1ccc(S(=O)(=O)N2C[C@@H]3CCCN3c3ccc(C(F)(F)F)cc32)cc1`: -15%; `COc1cc(N)ccc1OCC(F)F`: 2%; `O=C(c1ccccc1)c1ccc2n1CC[C@H]2C(=O)Nc1ccccc1C(F)(F)F`: 6%. Next, `Cc1nc([C@H](C)NC(=O)c2ccc(S(C)(=O)=O)cc2)cs1`: 3%; `Nc1nccnc1C(=O)N(Cc1ccccc1)C[C@]1(O)CCc2ccccc21`: -9%.

For the compound `COc1ccc(Nc2nnc(-c3ccc(NC(=O)C(=O)NCCCn4ccnc4)cc3)s2)cc1`, the “% Inhibition” value is 56%.
